# In patent publication US4017607A, “9,3",4"-Triacyl ester of the antibiotic SF-837 M1 substance and the production thereof” (Meiji Seika Kaisha, Ltd., priority 1974, dated 1977):
# Test system: gram-negative and gram-positive bacteria
# Assay: Antibacterial activity (in words)
# Assay type: cell-based
structure (smiles),measurement,value
CCC(=O)OC1CC(=O)OC(C)CC=CC=CC(OC(C)=O)C(C)CC(CC=O)C(OC2OC(C)C(OC3CC(C)(OC(=O)CC)C(OC(C)=O)C(C)O3)C(N(C)C)C2OC(C)=O)C1OC (stereo not shown),antibacterial activity,"had an antibacterial activity but lower than that of 9,4""-di-acetyl-3""-propionyl SF-837 M1 substance"
